Values joined by “and” are separate entries in the source; they are usually repeats but may differ in a detail not shown here. Identical values can stand only once. Inconclusive results, whose numbers are uncertain, are shown with a selection of clear calls. For part of these data: Potencies beside an inconclusive call are fits to weak or partial responses and may not hold up. A structure can be active in one record and inactive in another. Active and inactive are the calls of the source. Unless noted, calls follow the shape of the dose curve; as a rule, active = well fitted curve in the direction sought with a large enough effect in the repeat runs; inconclusive = weak or mixed curves; inactive = no such curve, though single readings can be large; an effect the other way counts as inactive or inconclusive.
Legend:
[1] = qHTS assay for small molecule agonists of the antioxidant response element (ARE) signaling pathway (AID 743202; active = well fitted activation curve with a large enough effect in the signal ratio in the repeat runs, not every such curve was filed as active; inconclusive = weak or mixed curves, or effect the other way; inactive = no such curve, though single readings can be large or run the other way; the % refers to the signal ratio; as to activation: % is scaled to controls: 0 for no effect and ±100 for the full control effect); settings: HepG2 ARE-bla reporter, beta-lactamase FRET, 16 h; activation: at 73.3 µM (top of the series) unless noted
How it was run: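 Quantitative high-throughput format in HepG2 cells bearing an integrated ARE-beta-lactamase reporter. Compound exposure lasted 16 h at 37 C, and fluorescence was read 2 h after adding LiveBLAzer B/G substrate at room temperature.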

[2] = qHTS assay for small molecule activators of the heat shock response signaling pathway - cell viability counter screen (AID 743209); settings: HSE-bla HeLa viability, CellTiter-Glo luminescence, 5 h; activity change, negative = cytotoxicity: at 62.6 µM (top of the series) unless noted; also: nearly all actives have a fitted effect of over 50% in size
How it was run: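 Readout: CellTiter-Glo luminescence, 30 min at room temperature. System: HSE-bla HeLa cells, 1500/well, plated overnight. Treatment: compounds in DMSO, 5 h at 37 C.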

[3] = qHTS assay for small molecule activators of the heat shock response signaling pathway (AID 743210; active = well fitted activation curve with a large enough effect in the signal ratio in the repeat runs, with a control signal flat, not every such curve was filed as active; inconclusive = weak or mixed curves; the % refers to the signal ratio); settings: HeLa HSE-bla reporter, beta-lactamase ratio, 5 h; activation: at 62.6 µM (top of the series)
How it was run: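 HeLa HSE-bla cells, overnight plating; cpd in DMSO 5 h, 37 C; LiveBLAzer B/G FRET substrate 2.5 h RT; fluorescence intensity read.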

[4] = qHTS assay to identify small molecule agonists of the peroxisome proliferator-activated receptor delta (PPARd) signaling pathway - cell viability counter screen (AID 743211); settings: PPARd-bla HEK293H viability, CellTiter-Glo luminescence, 17 h; activity change, negative = cytotoxicity: at 62.6 µM (top of the series); also: nearly all actives have a fitted effect of over 55% in size
How it was run: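 Multiplexed format: after the 2 h room-temperature LiveBLAzer B/G FRET step, CellTiter-Glo was added to the same wells. Luminescence after 30 min gave cell viability; compound exposure was 17 h at 37C.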

[5] = qHTS assay to identify small molecule antagonists of the peroxisome proliferator-activated receptor delta (PPARd) signaling pathway - cell viability counter screen (AID 743213); settings: PPARd-bla HEK293H viability, CellTiter-Glo luminescence, 17 h; viability change, negative = cytotoxic: at 62 µM (top of the series) unless noted; also: nearly all actives have a fitted effect of over 50% in size
How it was run: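 Cytotoxicity counter screen: CellTiter-Glo luminescence read 30 min after addition, in the same wells as the reporter assay. There, PPARd UAS-bla HEK293H cells (3000/well) were treated 17 h at 37 C with compound and 300 nM L165041.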

[6] = target: Peroxisome proliferator-activated receptor delta (Homo sapiens) (UniProt Q03181); experiment: qHTS assay to identify small molecule antagonists of the peroxisome proliferator-activated receptor delta (PPARd) signaling pathway (AID 743215; active = well fitted inhibition curve with a large enough effect in the signal ratio in the repeat runs, not every such curve was filed as active; inconclusive = weak or mixed curves, or effect the other way; inactive = no such curve, though single readings can be large or run the other way; the % refers to the signal ratio;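 also: cells stimulated with agonist L165041 at 300 nM final during compound exposure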; as to ratio activity, negative = inhibition: % is scaled to controls: 0 for no effect and ±100 for the full control effect); settings: HEK293H PPARd-UAS-bla, beta-lactamase FRET ratio, antagonist, 17 h; ratio activity, negative = inhibition: at 62 µM (top of the series) unless noted
How it was run: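 HEK293H UAS-bla, PPARd; agonist L165041 300 nM final with cpd in DMSO; 37 C 17 h; FRET substrate, RT 2 h; fluorescence intensity.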

[7] = qHTS assay to identify small molecule agonists of the farnesoid-X-receptor (FXR) signaling pathway - cell viability counter screen (AID 743218); settings: FXR-bla HEK293T viability, CellTiter-Glo luminescence, 16 h; viability change, negative = cytotoxic: at 62.6 µM (top of the series) unless noted; also: nearly all actives have a fitted effect of over 45% in size
How it was run: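 Parallel cytotoxicity test: compound-treated (16 h, 37 C) HEK 293T FXR-bla reporter cells were lysed with CellTiter-Glo and luminescence recorded.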

[8] = qHTS assay to identify small molecule antagonists of the farnesoid-X-receptor (FXR) signaling pathway - cell viability counter screen (AID 743221; active = well fitted cell-killing curve with a large enough effect in the repeat runs, not every such curve was filed as active; inconclusive = weak or mixed curves, or effect the other way; inactive = no such curve, though single readings can be large or run the other way; also: nearly all actives have a fitted effect of over 50% in size; as to activity change, negative = cytotoxicity: % is scaled to controls: 0 for no effect and ±100 for the full control effect); settings: FXR-bla HEK293T viability, CellTiter-Glo luminescence, 16 h; activity change, negative = cytotoxicity: at 62.6 µM (top of the series)
How it was run: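 CellTiter-Glo, 30 min RT, luminescence; same wells as the LiveBLAzer FRET read. Cells: FXR-UAS-bla HEK 293T. Treatment: compound with chenodeoxycholic acid 50 uM final, 16 h at 37 C.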

[9] = qHTS assay to identify small molecule agonists of the vitamin D receptor (VDR) signaling pathway - cell viability counter screen (AID 743224); settings: VDR-bla HEK293T viability, CellTiter-Glo luminescence, 16 h; activity change, negative = cytotoxicity: at 62.6 µM (top of the series) unless noted; also: nearly all actives have a fitted effect of over 50% in size
How it was run: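 Plated VDR-bla cells (4 h, 37C) received compound, incubated 16 h, then LiveBLAzer substrate 2 h RT; CellTiter-Glo added afterwards, luminescence read at 30 min.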

[10] = qHTS assay to identify small molecule antagonists of the vitamin D receptor (VDR) signaling pathway - cell viability counter screen (AID 743225); settings: VDR-bla HEK293T viability, CellTiter-Glo luminescence, 16 h; viability change, negative = cytotoxic: at 61 µM (top of the series) unless noted; also: nearly all actives have a fitted effect of over 50% in size
How it was run: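 Cytotoxicity toward the VDR-bla HEK 293T line was scored by ATP-based CellTiter-Glo luminescence, read in the wells already used for the beta-lactamase readout after 16 h compound treatment under 3 nM 1-alpha,25-dihydroxyvitamin D3 stimulation.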

[11] = target: Peroxisome proliferator-activated receptor delta (Homo sapiens) (UniProt Q03181); experiment: qHTS assay to identify small molecule agonists of the peroxisome proliferator-activated receptor delta (PPARd) signaling pathway (AID 743212; calls by dose curve; as to activation: % is scaled to controls: 0 for no effect and ±100 for the full control effect); settings: HEK293H PPARd-UAS-bla, beta-lactamase FRET ratio, 17 h; activation: at 62.6 µM (top of the series) unless noted
How it was run: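 HEK293H PPARd-bla cells; 5 h preincubation 37 C/5% CO2; compound (DMSO) 37 C; LiveBLAzer B/G FRET substrate 2 h RT; fluorescence intensity.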

[12] = target: Bile acid receptor (Homo sapiens) (UniProt Q96RI1); experiment: qHTS assay to identify small molecule antagonists of the farnesoid-X-receptor (FXR) signaling pathway (AID 743217; active = well fitted inhibition curve with a large enough effect in the signal ratio in the repeat runs, not every such curve was filed as active; inconclusive = weak or mixed curves, or effect the other way; inactive = no such curve, though single readings can be large or run the other way; the % refers to the signal ratio); settings: HEK293T FXR-UAS-bla, beta-lactamase ratio, CDCA-stimulated, 16 h; activity change, negative = inhibition: at 62.6 µM (top of the series) unless noted
How it was run: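 GeneBLAzer FXR-UAS-bla HEK 293T, CDCA-stimulated (50 uM final). Compound treatment 16 h, 37 °C. Detection: beta-lactamase cleavage of B/G FRET substrate, fluorescence.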

[13] = target: Vitamin D3 receptor (Homo sapiens) (UniProt P11473); experiment: qHTS assay to identify small molecule antagonists of the vitamin D receptor (VDR) signaling pathway (AID 743223; active = well fitted inhibition curve with a large enough effect in the signal ratio in the repeat runs, not every such curve was filed as active; inconclusive = weak or mixed curves, or effect the other way; inactive = no such curve, though single readings can be large or run the other way; the % refers to the signal ratio); settings: VDR-UAS-bla HEK293T, beta-lactamase FRET ratio, 16 h
How it was run: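 After VDR-bla cells are plated and left 4 h at 37C, DMSO-dissolved compounds and 3 nM (final) calcitriol agonist are added. Incubation continues 16 h at 37C; FRET beta-lactamase substrate then develops 2 h at room temperature.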

[14] = qHTS assay to identify small molecule antagonists of the peroxisome proliferator-activated receptor gamma (PPARg) signaling pathway - cell viability counter screen (AID 743194); settings: PPARg-bla HEK293H viability, CellTiter-Glo luminescence, 17 h, co-treated with 50 nM rosiglitazone; activity change, negative = cytotoxicity: at 62.6 µM (top of the series) unless noted; also: nearly all actives have a fitted effect of over 55% in size
How it was run: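 Viability was measured as CellTiter-Glo luminescence in GeneBLAzer PPARg UAS-bla HEK293H cells. These cells had been exposed 17 h at 37 C to compounds together with rosiglitazone at 50 nM final, with the beta-lactamase readout taken in the same wells.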

[15] = target: Bile acid receptor (Homo sapiens) (UniProt Q96RI1); experiment: qHTS assay to identify small molecule agonists of the farnesoid-X-receptor (FXR) signaling pathway (AID 743220; active = well fitted activation curve with a large enough effect in the signal ratio in the repeat runs, not every such curve was filed as active; inconclusive = weak or mixed curves, or effect the other way; the % refers to the signal ratio); settings: HEK293T FXR-UAS-bla, beta-lactamase FRET ratio, 16 h; activation: at 62.6 µM (top of the series) unless noted
How it was run: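 Beta-lactamase reporter under UAS control in GeneBLAzer FXR HEK 293T cells (5000/well) measured with LiveBLAzer FRET substrate after 2 h at room temperature. Compound exposure lasted 16 h at 37C.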

[16] = target: Vitamin D3 receptor (Homo sapiens) (UniProt P11473); experiment: qHTS assay to identify small molecule agonists of the vitamin D receptor (VDR) signaling pathway (AID 743222; calls by dose curve); settings: HEK293T VDR-UAS-bla, beta-lactamase FRET ratio, 16 h; activation: at 63.5 µM (top of the series) unless noted
How it was run: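 In VDR-bla cells, compound-induced beta-lactamase expression is quantified by FRET substrate fluorescence. Treatment lasts 16 h at 37C; substrate develops 2 h at room temperature.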

[17] = activity change, negative = inhibition: at 61 µM (top of the series) unless noted
Potency is read from the fitted curve at half-maximal effect; tags tell the direction and shape of the fitted curve or compound fluorescence and quenching.

Sequence of UniProt Q03181 (Q03181 whole entry, looked up): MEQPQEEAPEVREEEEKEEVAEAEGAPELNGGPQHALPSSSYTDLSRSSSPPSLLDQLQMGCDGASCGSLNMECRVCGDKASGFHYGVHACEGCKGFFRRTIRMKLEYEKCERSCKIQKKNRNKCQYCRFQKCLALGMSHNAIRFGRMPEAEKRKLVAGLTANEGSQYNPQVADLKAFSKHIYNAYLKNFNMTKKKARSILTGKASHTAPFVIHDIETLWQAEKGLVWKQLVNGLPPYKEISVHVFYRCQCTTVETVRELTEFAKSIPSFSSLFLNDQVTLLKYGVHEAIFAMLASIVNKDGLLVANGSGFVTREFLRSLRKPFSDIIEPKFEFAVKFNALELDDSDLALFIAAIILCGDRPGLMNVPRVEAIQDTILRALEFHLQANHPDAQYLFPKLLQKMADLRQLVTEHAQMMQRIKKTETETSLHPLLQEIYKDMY
Sequence of UniProt P11473 (P11473 whole entry, looked up): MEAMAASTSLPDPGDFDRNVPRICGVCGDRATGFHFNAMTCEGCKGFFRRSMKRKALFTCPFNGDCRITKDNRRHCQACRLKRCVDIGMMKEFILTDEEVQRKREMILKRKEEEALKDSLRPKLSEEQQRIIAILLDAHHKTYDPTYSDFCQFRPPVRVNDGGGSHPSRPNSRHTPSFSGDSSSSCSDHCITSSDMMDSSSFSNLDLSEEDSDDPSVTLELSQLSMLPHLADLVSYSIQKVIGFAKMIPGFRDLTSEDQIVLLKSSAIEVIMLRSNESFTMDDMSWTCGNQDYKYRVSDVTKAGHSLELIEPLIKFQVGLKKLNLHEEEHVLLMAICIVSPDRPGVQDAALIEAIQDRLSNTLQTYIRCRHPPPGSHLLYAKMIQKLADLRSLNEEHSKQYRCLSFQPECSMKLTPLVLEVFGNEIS
Sequence of UniProt Q96RI1 (Q96RI1 whole entry, looked up): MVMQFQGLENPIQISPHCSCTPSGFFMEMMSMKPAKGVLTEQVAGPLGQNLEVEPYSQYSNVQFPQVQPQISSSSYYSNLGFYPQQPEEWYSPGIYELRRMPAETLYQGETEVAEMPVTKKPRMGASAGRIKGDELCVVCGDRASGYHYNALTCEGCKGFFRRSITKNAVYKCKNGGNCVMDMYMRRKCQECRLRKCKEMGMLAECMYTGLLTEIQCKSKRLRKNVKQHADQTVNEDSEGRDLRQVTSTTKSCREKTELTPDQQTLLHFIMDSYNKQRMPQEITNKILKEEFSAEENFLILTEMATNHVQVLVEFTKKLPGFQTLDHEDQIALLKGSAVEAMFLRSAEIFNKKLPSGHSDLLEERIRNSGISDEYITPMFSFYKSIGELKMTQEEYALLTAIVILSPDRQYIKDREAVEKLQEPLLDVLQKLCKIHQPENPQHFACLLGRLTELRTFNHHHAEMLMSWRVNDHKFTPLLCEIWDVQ

CCCCCCCCOC(=O)c1ccc(O)cc1
Potency [1]: inconclusive: 60.9 µM | Potency [2]: inconclusive: 54.8 µM [cytotoxic, single point] and inconclusive: 54.9 µM [cytotoxic, single point] | Potency [3]: inconclusive: 56.9 µM and inconclusive: 57.1 µM | Potency [4]: active: 48.8 µM and inconclusive: 54.9 µM [cytotoxic, single point] | Potency [5]: inconclusive: 38.8 µM [cytotoxic] and active: 49 µM | Potency [6]: inconclusive: 54.8 µM [inhibitor] and inconclusive: 54.9 µM [inhibitor, single point] | Potency [7]: inconclusive: 21.8 µM [rising, single point] | Potency [8]: inactive | Potency [9]: active: 21.8 µM and active: 49 µM | Potency [10]: inconclusive: 38.8 µM [cytotoxic, partial curve] and active: 49 µM

COc1ccc(N)c(C)c1
activation [11]: inconclusive: -1.52% | Potency [6]: inactive

COc1ccc(COC(C)=O)cc1
Potency [1]: inactive | Potency [3]: active: 54.9 µM | ratio activity, negative = inhibition [6]: inconclusive: -61.1% | Potency [12]: inactive | Potency [7]: inconclusive: 0.994 µM [rising, full curve, poor fit] | activity change, negative = inhibition [13, 17]: inconclusive: -0.263%

O=C(OCC1CCC2OC2C1)C1CCC2OC2C1 (stereo not given)
Potency [14]: inconclusive: 0.776 µM [cytotoxic, full curve, poor fit] | Potency [5]: inconclusive: 1.45 µM [cytotoxic, full curve, poor fit] and inactive | activity change, negative = inhibition ([13]; at 61 µM (top of the series)): inconclusive: -20.2% | activity change, negative = inhibition ([13]; at 78.8 µM (top of the series)): inconclusive: -13.6%

c1ccc(Sc2ccccc2)cc1
Potency [2]: inconclusive: 54.9 µM [cytotoxic] | Potency [3]: inconclusive: 57.1 µM | Potency [4]: inconclusive: 54.9 µM [cytotoxic, single point] | Potency [5]: inconclusive: 61.6 µM [cytotoxic, partial curve, poor fit] | Potency [7]: inactive

CC[C@]12CCCN3CCc4c(n(c5ccccc45)[C@@](O)(C(=O)OC)C1)[C@@H]32
Potency [3]: inactive | Potency [5]: inconclusive: 54.9 µM [cytotoxic, partial curve, poor fit]

C[C@]12C=CC(=O)C=C1CC[C@@H]1[C@@H]2[C@@H](O)C[C@@]2(C)[C@H]1CC[C@]2(O)C(=O)CO
Potency [1]: inactive | viability change, negative = cytotoxic [7]: inconclusive: 32.1% | Potency [8]: inactive | Potency [9]: inactive

O=C(NO)c1ccccc1
Potency [14]: inconclusive: 20.8 µM [rising, single point] | Potency [4]: inconclusive: 52.3 µM [cytotoxic, partial curve, poor fit] | Potency [11]: inconclusive: 26 µM | Potency [6]: inconclusive: 18.4 µM [fluorescent, partial curve, poor fit] | activity change, negative = inhibition [12]: inconclusive: 23.9% | Potency [7]: inconclusive: 52.3 µM [cytotoxic, single point] | Potency [15]: inconclusive: 46.2 µM [rising, partial curve] | Potency [8]: inconclusive: 46.6 µM | Potency [16]: inconclusive: 58.7 µM | Potency [13, 17]: inconclusive: 58.7 µM [fluorescent] | Potency [10]: inconclusive: 466 nM [cytotoxic, single point]

COc1ccc2cc([C@H](C)C(=O)O)ccc2c1
activity change, negative = inhibition [13, 17]: inconclusive: 24.7%

O=CCc1ccccc1
activation [1]: inconclusive: 29.4% and inconclusive: 36.5% | Potency [12]: inactive | Potency [10]: inconclusive: 1930 nM [cytotoxic, full curve, poor fit]

CCCCCCO
Potency [1]: inactive | Potency [16]: inconclusive: 7.76 µM [rising, partial curve, poor fit] | Potency [13, 17]: inactive and inconclusive: 871 nM [activator, full curve, poor fit] | Potency [9]: inconclusive: 61.7 µM [cytotoxic, partial curve, poor fit] | Potency [10]: inconclusive: 1.9 nM [cytotoxic, full curve, poor fit]

CC(O)CO (stereo not given)
Potency [8]: inactive | activity change, negative = inhibition ([13]; at 6.95 µM (top of the series)): inconclusive: 21.1% | activity change, negative = inhibition ([13]; at 61 µM (top of the series)): inconclusive: 12.5%

O=C(O)c1cccnc1
activation [1]: inconclusive: 16.6% | Potency [7]: inconclusive: 0.691 µM [rising, partial curve] | Potency [8]: inconclusive: 21.9 µM [rising, full curve, poor fit]

OCC(CO)(CBr)CBr
Potency [10]: inactive

COc1ccc(C(Cl)=C(c2ccc(OC)cc2)c2ccc(OC)cc2)cc1
Potency [3]: inactive | Potency [11]: inactive | Potency [6]: inconclusive: 54.9 µM [cytotoxic, partial curve, poor fit] | Potency [7]: inconclusive: 0.0061 µM [rising, full curve, poor fit] | activity change, negative = inhibition [13, 17]: inconclusive: 3.54%

COc1ccccc1/C=C/C=O
Potency [14]: inconclusive: 61.6 µM [cytotoxic, partial curve, poor fit] | Potency [3]: inconclusive: 63.3 µM and inconclusive: 58.2 µM [activator] | Potency [5]: inactive | Potency [12]: inactive and inconclusive: 54.9 µM [inhibitor, single point] | Potency [7]: inactive

CCCCC(CC)COS(=O)(=O)O (stereo not given)
activation [1]: inconclusive: 0.669% | Potency [4]: inconclusive: 21.9 µM [cytotoxic, single point] | Potency [15]: inconclusive: 0.0195 µM [fluorescent, full curve, poor fit] | Potency [16]: inactive | activity change, negative = inhibition [13, 17]: inconclusive: -12.6%

Source: PubChem BioAssay (Tox21)
